Measured values: article PMC4336329 (PLoS ONE, 2015)
Among all 310,000 compounds or so, about 2,200 (0.71%) showed an effect of 50% or more. The effect is printed as a negative number. Some of the results follow.

These molecules were tested against human ether-à-go-go-related gene (hERG) potassium channel (human, UniProt Q12809) (assay: primary screen, population patch clamp on CHO cells stably expressing hERG).
Sequence of human ether-à-go-go-related gene (hERG) potassium channel (Q12809 whole entry, looked up): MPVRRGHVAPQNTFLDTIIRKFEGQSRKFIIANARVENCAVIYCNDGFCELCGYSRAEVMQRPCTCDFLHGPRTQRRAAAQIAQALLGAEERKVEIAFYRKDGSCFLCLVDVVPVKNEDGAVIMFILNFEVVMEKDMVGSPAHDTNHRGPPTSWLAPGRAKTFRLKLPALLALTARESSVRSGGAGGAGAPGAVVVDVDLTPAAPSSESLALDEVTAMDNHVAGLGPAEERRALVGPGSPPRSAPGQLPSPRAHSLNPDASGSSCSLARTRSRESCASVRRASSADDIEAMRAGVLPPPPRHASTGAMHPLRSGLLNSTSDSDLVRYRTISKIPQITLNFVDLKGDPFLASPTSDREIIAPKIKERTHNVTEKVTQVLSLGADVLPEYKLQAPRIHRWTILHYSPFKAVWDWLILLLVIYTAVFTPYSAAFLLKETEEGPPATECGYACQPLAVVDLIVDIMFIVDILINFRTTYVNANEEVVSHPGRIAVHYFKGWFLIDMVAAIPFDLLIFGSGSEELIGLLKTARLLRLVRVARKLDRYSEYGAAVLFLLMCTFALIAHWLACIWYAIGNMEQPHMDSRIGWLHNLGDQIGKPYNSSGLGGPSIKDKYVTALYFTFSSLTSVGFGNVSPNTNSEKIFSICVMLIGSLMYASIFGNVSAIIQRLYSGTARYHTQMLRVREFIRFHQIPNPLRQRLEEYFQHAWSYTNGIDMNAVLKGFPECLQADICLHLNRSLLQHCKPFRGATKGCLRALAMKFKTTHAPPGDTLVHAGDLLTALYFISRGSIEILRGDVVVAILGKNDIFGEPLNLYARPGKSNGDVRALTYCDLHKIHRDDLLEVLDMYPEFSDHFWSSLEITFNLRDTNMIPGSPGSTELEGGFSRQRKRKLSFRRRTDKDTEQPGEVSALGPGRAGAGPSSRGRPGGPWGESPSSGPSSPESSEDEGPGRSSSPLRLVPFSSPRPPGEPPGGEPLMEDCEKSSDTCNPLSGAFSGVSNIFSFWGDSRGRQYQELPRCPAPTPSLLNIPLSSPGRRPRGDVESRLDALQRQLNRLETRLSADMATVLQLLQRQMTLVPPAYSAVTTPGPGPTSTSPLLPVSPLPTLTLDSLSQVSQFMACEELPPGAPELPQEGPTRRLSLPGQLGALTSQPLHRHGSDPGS

Going from O=C(O)C(CCCCNS(=O)(=O)c1ccc(F)cc1)NS(=O)(=O)c1ccc(F)cc1 (stereo not shown) to CCOc1ccc(NC(=S)Nc2ccc(F)cc2)cc1, the “hERG current change (%, negative = inhibition) at 1uM” value falls from 9.45% to 4.89%.

Going from CCCC(=O)Nc1c(-c2cccs2)c(=O)c2ccccc2n1CC to Cc1ccnc(NC(=O)c2oc3ccccc3c2C)c1, the “hERG current change (%, negative = inhibition) at 1uM” value rises from 6.42% to 20.1%.

First: Cc1cccc(C)c1NC(=S)NC(C)(C)CO
Second: Cc1ccc([N+](=O)[O-])cc1NC(=O)Nc1onc(C)c1C
The “hERG current change (%, negative = inhibition) at 1uM” value of the first is higher: 14.6% for the first, 12.9% for the second.

Going from Cn1ncc(C(=O)Nc2ccc(OC(F)(F)F)cc2)c1-n1cccc1 to COc1ccc(NC(=O)CN(C)C(=O)c2cccc(S(=O)(=O)Nc3ccccc3Cl)c2)cc1, the “hERG current change (%, negative = inhibition) at 1uM” value rises from -6.3% to 14.8%.

First: CCC(=O)c1ccc(OCC(=O)OCC(=O)NCCCc2ccccc2)cc1
Second: COc1ccc(CCNC(=O)CSc2nnc(-c3ccc(F)cc3)c3ccccc23)cc1OC
The “hERG current change (%, negative = inhibition) at 1uM” value of the first is higher: 7.9% for the first, 6.51% for the second.

Going from Cc1cccc(NC(=O)CCN2CCN(C/C=C/c3ccccc3)CC2)c1.Cl to Oc1ccccc1-c1nc(/C=C/c2ccccc2)nn1-c1ccccc1, the “hERG current change (%, negative = inhibition) at 1uM” value rises from -82.5% to 11.9%.

First: CC(=O)C1=C(O)C(=O)N(C2CCCCC2)C1c1ccccc1 (stereo not shown)
Second: CCCN=C(C)C1=C(O)c2ccccc2C1=O
The “hERG current change (%, negative = inhibition) at 1uM” value of the first is lower: 8.39% for the first, 16.9% for the second.

Compared with CC1CCc2[nH]nc(C(=O)O)c2C1 (stereo not shown), CC1(C)C2CC[C@]1(C)C(=O)N(CCCCN1CCN(c3ccccn3)CC1)C2=O.Cl is lower in “hERG current change (%, negative = inhibition) at 1uM” value: -3.27% for the first, -9.56% for the second.

First: Cl.NC(CO)c1cn([C@@H](CCC(=O)O)C(=O)N2CCNCC2)nn1 (stereo partly shown)
Second: O=C1CCC(C(=O)N2CCN(c3cnccn3)CC2)CN1CCc1cccc(F)c1 (stereo not shown)
The “hERG current change (%, negative = inhibition) at 1uM” value of the first is higher: 15.5% for the first, 0.858% for the second.

First: O=C(NCCc1ccc(Cl)cc1)C1CCN(S(=O)(=O)N2CCCCC2)CC1
Second: CCN(CC)S(=O)(=O)c1ccc(NC2c3ccccc3C(=O)N2Cc2ccc3c(c2)OCO3)cc1 (stereo not shown)
The “hERG current change (%, negative = inhibition) at 1uM” value of the first is lower: 0.984% for the first, 7.12% for the second.

Compared with Cc1ccc(NC(=O)Cc2nc(CCl)cs2)cc1.Cl, CCN1CCCC1CN(Cc1cc2ccc(C)cc2[nH]c1=O)C(=S)Nc1ccc(OC)cc1 (stereo not shown) is higher in “hERG current change (%, negative = inhibition) at 1uM” value: 12.7% for the first, 21.4% for the second.

First: Cc1ccccc1CSCc1nc(N)nc(Nc2ccccc2C)n1
Second: CN1C(=O)/C(=C\c2ccccc2OCc2ccccc2)SC1=S
The “hERG current change (%, negative = inhibition) at 1uM” value of the first is lower: 9.23% for the first, 10.6% for the second.

With N#CC1=C(N)NC(=S)C(C(N)=O)C1c1ccc([N+](=O)[O-])cc1 (stereo not shown) the “hERG current change (%, negative = inhibition) at 1uM” value was 7.85%.
